Some of the results follow.
What follows are sequences tested against T1, MBP-FoxP1dN (Mus musculus, UniProt P58462 326-579) (assay: PD-seq (MBP pull-down with sequencing); 20 mM Tris-HCl pH 7.5, 100 mM NaCl, 1.5 mM MgCl2, 0.4 uM protein, 0.1 uM dsDNA library, 30 min, room temperature, amylose pull-down; high values mean tight binding). Conditions: protein: recombinant; tags: His6-MBP; chain copies: 2; dsDNA, one strand shown.
T1 sequence: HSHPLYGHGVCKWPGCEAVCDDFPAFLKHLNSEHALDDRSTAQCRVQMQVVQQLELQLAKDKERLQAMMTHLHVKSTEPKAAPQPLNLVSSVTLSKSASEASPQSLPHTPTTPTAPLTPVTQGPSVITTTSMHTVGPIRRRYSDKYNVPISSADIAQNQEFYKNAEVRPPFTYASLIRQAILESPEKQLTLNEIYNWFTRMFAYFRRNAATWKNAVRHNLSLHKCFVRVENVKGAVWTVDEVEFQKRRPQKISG
Method in brief: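 The N-terminus-lacking fragment of mouse FoxP3 or FoxP1 carried a His6-MBP tag and was expressed in E. coli. At 0.4 µM it was incubated with 0.1 µM Klenow-filled degenerate double-stranded DNA library for 30 min at room temperature in Tris pH 7.5 buffer with NaCl and MgCl2, and complexes were caught on amylose resin, washed three times, released with proteinase K, PCR-barcoded and Illumina-sequenced. Binding is reads-per-million enrichment of pull-down over input with replicates pooled.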

Sequence	binding signal
GATGATTGTTCTCCCAGCTGATGAATTACAGACGTCGAGTAAACAAATTTTCCTAATCTTTCTGTTCAAGCGCCATCTAC	1.01 RPM ratio (pull-down/input)
GATGATTGTTCTCCCAGCTGATGAATTCTAGCGATCGAGTAAACAAATTTTCCTAATCTTTCTGTTCAAGCGCCATCTAC	0.884 RPM ratio (pull-down/input)
GATGATTGTTCTCCCAGCTGATGAATTTCGTACTTCGAGTAAACAAATTTTCCTAATCTTTCTGTTCAAGCGCCATCTAC	0.893 RPM ratio (pull-down/input)
GATGATTGTTCTCCCAGCTGATGAATTAACTTATTCGAGTAAACAAATTTTCCTAATCTTTCTGTTCAAGCGCCATCTAC	0.885 RPM ratio (pull-down/input)
GATGATTGTTCTCCCAGCTGATGAATTAAGAGGCTCGAGTAAACAAATTTTCCTAATCTTTCTGTTCAAGCGCCATCTAC	0.988 RPM ratio (pull-down/input)
GATGATTGTTCTCCCAGCTGATGAATTAATGCACTCGAGTAAACAAATTTTCCTAATCTTTCTGTTCAAGCGCCATCTAC	1.54 RPM ratio (pull-down/input)
GATGATTGTTCTCCCAGCTGATGAATTATGAAGCTCGAGTAAACAAATTTTCCTAATCTTTCTGTTCAAGCGCCATCTAC	0.829 RPM ratio (pull-down/input)
GATGATTGTTCTCCCAGCTGATGAATTCTAAATCTCGAGTAAACAAATTTTCCTAATCTTTCTGTTCAAGCGCCATCTAC	0.882 RPM ratio (pull-down/input)
GATGATTGTTCTCCCAGCTGATGAATTGAGAGTTTCGAGTAAACAAATTTTCCTAATCTTTCTGTTCAAGCGCCATCTAC	0.911 RPM ratio (pull-down/input)
GATGATTGTTCTCCCAGCTGATGAATTAACTCTATCGAGTAAACAAATTTTCCTAATCTTTCTGTTCAAGCGCCATCTAC	0.964 RPM ratio (pull-down/input)
GATGATTGTTCTCCCAGCTGATGAATTTGGCCTGTCGAGTAAACAAATTTTCCTAATCTTTCTGTTCAAGCGCCATCTAC	0.807 RPM ratio (pull-down/input)
GATGATTGTTCTCCCAGCTGATGAATTCATGCGATCGAGTAAACAAATTTTCCTAATCTTTCTGTTCAAGCGCCATCTAC	0.917 RPM ratio (pull-down/input)
GATGATTGTTCTCCCAGCTGATGAATTCAGCGCTTCGAGTAAACAAATTTTCCTAATCTTTCTGTTCAAGCGCCATCTAC	0.896 RPM ratio (pull-down/input)
GATGATTGTTCTCCCAGCTGATGAATTGAACCCTTCGAGTAAACAAATTTTCCTAATCTTTCTGTTCAAGCGCCATCTAC	0.799 RPM ratio (pull-down/input)
GATGATTGTTCTCCCAGCTGATGAATTGCGGTATTCGAGTAAACAAATTTTCCTAATCTTTCTGTTCAAGCGCCATCTAC	1.11 RPM ratio (pull-down/input)
GATGATTGTTCTCCCAGCTGATGAATTGATTGAATCGAGTAAACAAATTTTCCTAATCTTTCTGTTCAAGCGCCATCTAC	1.08 RPM ratio (pull-down/input)
GATGATTGTTCTCCCAGCTGATGAATTCTTATATTCGAGTAAACAAATTTTCCTAATCTTTCTGTTCAAGCGCCATCTAC	1.05 RPM ratio (pull-down/input)
GATGATTGTTCTCCCAGCTGATGAATTAGAAAGCTCGAGTAAACAAATTTTCCTAATCTTTCTGTTCAAGCGCCATCTAC	0.893 RPM ratio (pull-down/input)
GATGATTGTTCTCCCAGCTGATGAATTGCCTGAGTCGAGTAAACAAATTTTCCTAATCTTTCTGTTCAAGCGCCATCTAC	0.852 RPM ratio (pull-down/input)
GATGATTGTTCTCCCAGCTGATGAATTAGAAATCTCGAGTAAACAAATTTTCCTAATCTTTCTGTTCAAGCGCCATCTAC	0.926 RPM ratio (pull-down/input)

Sequence	binding signal
GATGATTGTTCTCCCAGCTGATGAATTACGCCAATCGAGTAAACAAATTTTCCTAATCTTTCTGTTCAAGCGCCATCTAC	1.06 RPM ratio (pull-down/input)
GATGATTGTTCTCCCAGCTGATGAATTATGGGAATCGAGTAAACAAATTTTCCTAATCTTTCTGTTCAAGCGCCATCTAC	0.965 RPM ratio (pull-down/input)
GATGATTGTTCTCCCAGCTGATGAATTTCACACATCGAGTAAACAAATTTTCCTAATCTTTCTGTTCAAGCGCCATCTAC	1.02 RPM ratio (pull-down/input)
GATGATTGTTCTCCCAGCTGATGAATTGAAAGAATCGAGTAAACAAATTTTCCTAATCTTTCTGTTCAAGCGCCATCTAC	0.968 RPM ratio (pull-down/input)
GATGATTGTTCTCCCAGCTGATGAATTGTCTACCTCGAGTAAACAAATTTTCCTAATCTTTCTGTTCAAGCGCCATCTAC	1.01 RPM ratio (pull-down/input)
GATGATTGTTCTCCCAGCTGATGAATTACGACACTCGAGTAAACAAATTTTCCTAATCTTTCTGTTCAAGCGCCATCTAC	1.01 RPM ratio (pull-down/input)
GATGATTGTTCTCCCAGCTGATGAATTCACGATCTCGAGTAAACAAATTTTCCTAATCTTTCTGTTCAAGCGCCATCTAC	0.84 RPM ratio (pull-down/input)
GATGATTGTTCTCCCAGCTGATGAATTGCTTCGTTCGAGTAAACAAATTTTCCTAATCTTTCTGTTCAAGCGCCATCTAC	1.03 RPM ratio (pull-down/input)
GATGATTGTTCTCCCAGCTGATGAATTCTTGTTCTCGAGTAAACAAATTTTCCTAATCTTTCTGTTCAAGCGCCATCTAC	0.854 RPM ratio (pull-down/input)
GATGATTGTTCTCCCAGCTGATGAATTTGGCTGCTCGAGTAAACAAATTTTCCTAATCTTTCTGTTCAAGCGCCATCTAC	0.86 RPM ratio (pull-down/input)
GATGATTGTTCTCCCAGCTGATGAATTATCGGGTTCGAGTAAACAAATTTTCCTAATCTTTCTGTTCAAGCGCCATCTAC	0.892 RPM ratio (pull-down/input)
GATGATTGTTCTCCCAGCTGATGAATTCCCGTAATCGAGTAAACAAATTTTCCTAATCTTTCTGTTCAAGCGCCATCTAC	1.19 RPM ratio (pull-down/input)
GATGATTGTTCTCCCAGCTGATGAATTTATTCTATCGAGTAAACAAATTTTCCTAATCTTTCTGTTCAAGCGCCATCTAC	1.16 RPM ratio (pull-down/input)
GATGATTGTTCTCCCAGCTGATGAATTCGGAACTTCGAGTAAACAAATTTTCCTAATCTTTCTGTTCAAGCGCCATCTAC	0.797 RPM ratio (pull-down/input)
GATGATTGTTCTCCCAGCTGATGAATTCATTGTATCGAGTAAACAAATTTTCCTAATCTTTCTGTTCAAGCGCCATCTAC	1.18 RPM ratio (pull-down/input)
GATGATTGTTCTCCCAGCTGATGAATTAGAAATATCGAGTAAACAAATTTTCCTAATCTTTCTGTTCAAGCGCCATCTAC	0.961 RPM ratio (pull-down/input)
GATGATTGTTCTCCCAGCTGATGAATTACACCAATCGAGTAAACAAATTTTCCTAATCTTTCTGTTCAAGCGCCATCTAC	1.34 RPM ratio (pull-down/input)
GATGATTGTTCTCCCAGCTGATGAATTTATAGCGTCGAGTAAACAAATTTTCCTAATCTTTCTGTTCAAGCGCCATCTAC	1.02 RPM ratio (pull-down/input)
GATGATTGTTCTCCCAGCTGATGAATTCTCGGTGTCGAGTAAACAAATTTTCCTAATCTTTCTGTTCAAGCGCCATCTAC	0.871 RPM ratio (pull-down/input)
GATGATTGTTCTCCCAGCTGATGAATTTCTGAACTCGAGTAAACAAATTTTCCTAATCTTTCTGTTCAAGCGCCATCTAC	0.856 RPM ratio (pull-down/input)

Source: article PMC12820563, “FoxP3 forms a head-to-head dimer in vivo and stabilizes its multimerization on adjacent microsatellites”
